Reference: the supplement of paper PMC3334620
Over roughly 33,000 sequences, “E-score (-0.5 to 0.5)” has its median near -0.036; the highest 2% begin near 0.37. This is one part of the list.

Each sequence was assayed against T1, Yer064c (UniProt P40041) (assay: PBM E-score (8-mer binding enrichment) (E-score (-0.5 to 0.5)); higher = stronger / more preferred TF binding; most listed sequences are background and not binding sites). Conditions: protein concentration: 200 nM; construct: GST-full length.
T1 sequence: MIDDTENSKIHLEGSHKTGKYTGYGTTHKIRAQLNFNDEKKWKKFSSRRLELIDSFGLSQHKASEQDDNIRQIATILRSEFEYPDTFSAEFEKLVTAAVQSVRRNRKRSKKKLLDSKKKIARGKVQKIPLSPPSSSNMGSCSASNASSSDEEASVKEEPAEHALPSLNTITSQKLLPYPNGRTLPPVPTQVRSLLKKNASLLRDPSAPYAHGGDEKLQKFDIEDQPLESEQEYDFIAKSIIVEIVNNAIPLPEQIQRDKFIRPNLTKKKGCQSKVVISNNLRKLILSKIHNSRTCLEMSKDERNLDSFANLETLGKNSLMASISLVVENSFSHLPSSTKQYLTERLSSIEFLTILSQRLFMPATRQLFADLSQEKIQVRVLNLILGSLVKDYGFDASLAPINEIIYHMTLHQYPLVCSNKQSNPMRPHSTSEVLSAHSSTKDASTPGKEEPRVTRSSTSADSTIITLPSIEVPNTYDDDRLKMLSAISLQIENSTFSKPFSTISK
Summary of the method: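 Yeast transcription factors, full-length or as DNA-binding domains, were expressed with a GST tag using PURExpress in vitro transcription/translation. At about 100-200 nM they were applied to universal all-10-mer Agilent arrays, double-stranded by primer extension on fresh or once-stripped slides. Fluorescent anti-GST detected bound protein, and masliner normalised the scans. E-scores for ungapped eight-base words, pooled with reverse complements, came from the Universal PBM Analysis Suite.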

Compared with ATAGAAAG, GTTGGACA is lower in “PBM E-score” value: -0.171 for the first, -0.199 for the second.

Going from ATTTATTG to ATACCGCG, the “PBM E-score” value falls from 0.0179 to -0.135.

First: GAGCGCTC
Second: TACTATGA
The “PBM E-score” value of the first is lower: -0.104 for the first, 0.318 for the second.

Going from AGTCGGAC to ATACCAAA, the “PBM E-score” value falls from 0.289 to 0.0691.

Compared with CCGATTTC, AACTTCTC is higher in “PBM E-score” value: -0.129 for the first, -0.111 for the second.

First: CCCCGCCC
Second: ACAGATAG
The “PBM E-score” value of the first is higher: 0.00655 for the first, -0.0338 for the second.

Compared with ATGCACTC, GCTGGGTA is higher in “PBM E-score” value: -0.244 for the first, -0.151 for the second.

First: ACTTATGG
Second: CCATTGAG
The “PBM E-score” value of the first is lower: 0.0461 for the first, 0.051 for the second.

Going from AACAGTAT to AACGTTCC, the “PBM E-score” value falls from -0.0344 to -0.258.

First: GGAGTTTA
Second: CTTGAGAA
The “PBM E-score” value of the first is lower: -0.023 for the first, 0.136 for the second.

Going from ATTTCGTA to ACATGGTA, the “PBM E-score” value falls from 0.0825 to 0.0413.

Compared with AATTATCC, ATGAGACC is higher in “PBM E-score” value: -0.164 for the first, 0.109 for the second.

First: CAAGGGCA
Second: ACGCCATC
The “PBM E-score” value of the first is lower: -0.314 for the first, -0.136 for the second.

Compared with ATCAAAGG, CCACCGAA is lower in “PBM E-score” value: 0.101 for the first, -0.0621 for the second.

First: ATTCATGA
Second: GTGTAATA
The “PBM E-score” value of the first is higher: 0.346 for the first, 0.0937 for the second.

Going from ATGGCCAA to GCGGGCCA, the “PBM E-score” value falls from -0.199 to -0.291.

First: CTCTTGTC
Second: TACATTAA
The “PBM E-score” value of the first is lower: -0.0139 for the first, 0.0473 for the second.

Going from AGATTTAG to TACTGGGA, the “PBM E-score” value rises from 0.118 to 0.292.

First: ACCCGAGG
Second: AGCGAGGG
The “PBM E-score” value of the first is higher: -0.148 for the first, -0.345 for the second.

Going from CGAAAGAA to AGTGCGAC, the “PBM E-score” value falls from 0.0458 to -0.00807.

Compared with TGTGTTAA, ATGGTTTA is lower in “PBM E-score” value: 0.265 for the first, 0.115 for the second.

Compared with CCATTATA, CTCGTTGC is higher in “PBM E-score” value: 0.0179 for the first, 0.159 for the second.

Going from GTACACAA to GTACAACA, the “PBM E-score” value falls from 0.0958 to 0.0764.

First: CATGCCGG
Second: ATACATGC
The “PBM E-score” value of the first is lower: -0.0713 for the first, 0.011 for the second.

First: CGCGTTCA
Second: CTATGACA
The “PBM E-score” value of the first is lower: 0.0376 for the first, 0.0745 for the second.

Compared with GCAGGAAC, CGTCTTGA is higher in “PBM E-score” value: -0.185 for the first, 0.142 for the second.

Compared with ACGATGGC, AACAGAAA is higher in “PBM E-score” value: -0.0172 for the first, 0.0295 for the second.

First: AGCATTAG
Second: ATCGTTGA
The “PBM E-score” value of the first is lower: 0.04 for the first, 0.204 for the second.

Compared with CACCTTAG, ATCGTCAA is lower in “PBM E-score” value: 0.113 for the first, 0.0919 for the second.

First: ACCCACGT
Second: CTCTCTGC
The “PBM E-score” value of the first is lower: -0.0612 for the first, 0.00023 for the second.

First: AAACGGTA
Second: ACATTTAT
The “PBM E-score” value of the first is higher: 0.0163 for the first, -0.143 for the second.

First: GCTCTTTA
Second: GCAACCCC
The “PBM E-score” value of the first is lower: -0.216 for the first, -0.127 for the second.

Compared with ACTGAGAA, ACGGACTC is lower in “PBM E-score” value: 0.175 for the first, 0.173 for the second.

Going from ATAAATGG to CGGGATTA, the “PBM E-score” value falls from 0.00546 to -0.215.

Compared with ATGACGAG, CGTATCCA is higher in “PBM E-score” value: 0.00318 for the first, 0.072 for the second.

First: GAATAGTA
Second: GGATAAGA
The “PBM E-score” value of the first is lower: -0.0424 for the first, 0.018 for the second.

Compared with AACACGCC, AGTAAATC is higher in “PBM E-score” value: -0.178 for the first, 0.184 for the second.

Compared with AAGATTGA, GAAATGTC is lower in “PBM E-score” value: 0.213 for the first, -0.0666 for the second.

First: CGGACAAG
Second: CACTCCCG
The “PBM E-score” value of the first is lower: -0.0403 for the first, -0.039 for the second.

First: CTAAGAAG
Second: GAGCGACC
The “PBM E-score” value of the first is higher: 0.109 for the first, -0.221 for the second.

First: CAAACCCA
Second: ACCAATAG
The “PBM E-score” value of the first is higher: 0.0343 for the first, -0.0874 for the second.

Going from CCTCTGCC to AATGCCCG, the “PBM E-score” value falls from -0.243 to -0.299.

Going from AAGCACCA to CGAATGTC, the “PBM E-score” value rises from -0.244 to -0.0589.

Going from AGTGCTTG to CTCTCCTA, the “PBM E-score” value rises from -0.0767 to -0.058.

Compared with AACATACG, ATTTGCCG is lower in “PBM E-score” value: -0.0525 for the first, -0.0788 for the second.

First: GAAGGACC
Second: GAATAGCC
The “PBM E-score” value of the first is lower: -0.173 for the first, -0.0409 for the second.

First: CGAGTTTC
Second: ACGGCGTG
The “PBM E-score” value of the first is lower: -0.127 for the first, -0.0432 for the second.

First: AGTGGTTG
Second: AATAGGCA
The “PBM E-score” value of the first is higher: 0.0688 for the first, -0.191 for the second.

First: GAGGCTAC
Second: AACAGCGA
The “PBM E-score” value of the first is lower: -0.131 for the first, -0.059 for the second.

Compared with ATGAACAA, AGCTGTAT is lower in “PBM E-score” value: 0.0309 for the first, -0.0122 for the second.

First: GGACGCGA
Second: CCGCTAGC
The “PBM E-score” value of the first is higher: 0.0535 for the first, -0.334 for the second.

Going from TAGCAACA to ACCTTACC, the “PBM E-score” value rises from -0.0323 to -0.0176.

Going from ACGAAGGA to ACTGTAGG, the “PBM E-score” value rises from 0.037 to 0.117.

Going from CTTACGTC to TCATTAAA, the “PBM E-score” value rises from -0.0626 to 0.263.

Going from AAAGGTCG to CTTAGTAA, the “PBM E-score” value rises from -0.0747 to 0.161.

First: GTTATGGA
Second: TCTTAAAA
The “PBM E-score” value of the first is lower: -0.119 for the first, 0.0576 for the second.

Going from TCCATGCA to AGCACGCT, the “PBM E-score” value falls from -0.253 to -0.271.

Compared with ACTCTACA, CACTCCGA is lower in “PBM E-score” value: 0.0945 for the first, 0.00713 for the second.

First: CGAGCCTC
Second: CCGCAGGA
The “PBM E-score” value of the first is lower: -0.158 for the first, -0.121 for the second.

Going from CGCCGATA to ACGCCTCT, the “PBM E-score” value rises from -0.193 to -0.101.

Compared with ACGAAGGC, ATCGCGCG is higher in “PBM E-score” value: -0.201 for the first, 0.0987 for the second.

First: ACCGAAGC
Second: AGGCGACC
The “PBM E-score” value of the first is higher: -0.0648 for the first, -0.191 for the second.

Compared with GATCATCA, ATCGATCA is lower in “PBM E-score” value: 0.142 for the first, 0.123 for the second.

First: TCACCTGA
Second: ACAGAAGT
The “PBM E-score” value of the first is higher: 0.232 for the first, 0.0649 for the second.

Going from GCCAGCCC to CCATGGAC, the “PBM E-score” value rises from -0.326 to -0.107.

First: CCGTAAAC
Second: ATGTGGGA
The “PBM E-score” value of the first is lower: -0.0692 for the first, -0.042 for the second.

Compared with GAACATTC, GCTGTACA is lower in “PBM E-score” value: -0.103 for the first, -0.259 for the second.

First: AATTTGCG
Second: CGAGGGTC
The “PBM E-score” value of the first is higher: -0.174 for the first, -0.388 for the second.

First: CTTGACAA
Second: GAGGCGAA
The “PBM E-score” value of the first is higher: 0.113 for the first, -0.0509 for the second.

Going from GGCCTGAC to ACATTAGG, the “PBM E-score” value falls from 0.109 to -0.143.

First: ATTCTTTC
Second: GAGCGAGA
The “PBM E-score” value of the first is lower: 0.0902 for the first, 0.103 for the second.

Going from AAGCTCGT to GACAAGCA, the “PBM E-score” value falls from -0.0762 to -0.235.

Going from CACTGGAA to ACTGGAAA, the “PBM E-score” value rises from -0.0741 to 0.0907.

Compared with ACTCGTGC, GAAGTTTA is lower in “PBM E-score” value: 0.2 for the first, 0.0547 for the second.

First: AGTCGGCG
Second: GAGGGATC
The “PBM E-score” value of the first is higher: 0.299 for the first, -0.255 for the second.

First: GACGACTC
Second: CCCAACGA
The “PBM E-score” value of the first is higher: 0.442 for the first, -0.0153 for the second.

Going from ACCTTAGT to CCAACGCA, the “PBM E-score” value falls from 0.318 to -0.0399.

Compared with TAAGCAGA, AGACCTCA is higher in “PBM E-score” value: -0.0155 for the first, 0.0211 for the second.

First: AGGACTCA
Second: AACCTGAC
The “PBM E-score” value of the first is higher: 0.468 for the first, 0.216 for the second.

Compared with ACCTGCGG, CGCATGCC is higher in “PBM E-score” value: -0.208 for the first, -0.184 for the second.

Going from CACGATCA to AGGTACTC, the “PBM E-score” value rises from 0.0855 to 0.182.

First: ATGGCTCA
Second: AATGTCCT
The “PBM E-score” value of the first is higher: 0.422 for the first, -0.244 for the second.

Compared with AGCTGAAA, GTAGGCCA is lower in “PBM E-score” value: 0.0156 for the first, -0.193 for the second.

First: CAGTGGCG
Second: AGATGCTC
The “PBM E-score” value of the first is higher: -0.0546 for the first, -0.12 for the second.

First: ACGTGTTG
Second: CGTCCCAG
The “PBM E-score” value of the first is higher: 0.0745 for the first, -0.19 for the second.

Compared with CGACATAA, GAAGTTGC is lower in “PBM E-score” value: 0.047 for the first, -0.185 for the second.
